# Data from PubChem BioAssay AID463173 (ICCB-Longwood Screening Facility, Harvard Medical School, 2010).
# Screen size: about 52,000 compounds; about 1,700 (3.3%) were called active. Rule as the data show it: active = survival mostly below about 52% (no sharp cut-off); inactive = mostly above about 56%. The list shows a part of the results.
# Tested on: Wild type
# Experiment: S. aureus survival, RN4220 and DeltatarO strains – OD600, teichoic acid synthesis inhibitors, primary screen (AID 463173)
# Settings: S. aureus RN4220 wild type/DeltatarO growth, OD600, 18 h, active compounds read low, screened at 18.75 µg/mL (by protocol)
row,SMILES,survival
1,CCc1ccc(CNC(=O)c2ccc3c(c2)nc2n3CCOC2)cc1,inactive: 111%
2,CCN1CCN(C(=O)c2ccc3c(c2)N(Cc2cccc(Cl)c2)C(=O)c2ccccc2S3(=O)=O)CC1,inactive: 75%
3,COc1ccccc1CNC(=O)CSc1ncc2c(n1)-c1ccccc1N(Cc1ccc(C)cc1)S2(=O)=O,inactive: 76%
4,COc1ccc(-c2noc(C3CC(=O)N(c4ccc(C)c(F)c4)C3)n2)c(OC)c1 (centres undefined),inactive: 94%
5,CC1CCC(NC(=O)c2ccc3c(c2)N(Cc2cccc(F)c2)C(=O)c2ccccc2S3)CC1 (centres undefined),inactive: 129%
6,CCc1nnc(SCc2ccc(F)cc2Cl)c2cc3sccc3n12,inactive: 93%
7,Cc1ccc(C)c(NC(=O)C(C)n2c(=O)cc(C(F)(F)F)c3c(C)nn(C)c32)c1 (centres undefined),inactive: 80%
8,O=C(Cn1c(-c2cccs2)cc2cc(Cl)ccc21)N1CCCCC1,inactive: 68%
9,Cc1ccc(NC(=O)C2CCCN(S(=O)(=O)c3ccc4c(c3)CCCC(=O)N4)C2)cc1N(C)C (centres undefined),inactive: 75%
10,Cc1ccc(C)c(NC(=O)Cn2c(=O)n(CCCS(=O)(=O)C3CCCCC3)c(=O)c3ccccc32)c1,inactive: 119%
11,COc1ccc(Cl)cc1C(=O)NCC(c1ccc(N(C)C)cc1)N1CCCC1 (centres undefined),inactive: 124%
12,Cc1cc2ccccc2nc1SCCN1CCOCC1,inactive: 105%
13,CC(C)(O)C(=O)N=Nc1c(O)[nH]c2ccccc12,inactive: 109%
14,COc1cc(C2SCC(C(=O)O)N2C(C)=O)cc(Br)c1O (centres undefined),inactive: 112%
15,C/C(=N\N)c1ccc(OC(C)C)c(CN2CCOCC2)c1,inactive: 112%
16,Cc1ccc(-c2ccc(CCC(=O)O)n2-c2ccc(C)c(Cl)c2)cc1,inactive: 62%
17,Fc1ccc(-c2nnn3c2nc(NCc2ccccc2)c2ccccc23)cc1,inactive: 87%
18,CCOc1cc(C(=O)Nc2ccc(-c3nnc4n3CCCCC4)cc2)cc(OCC)c1OCC,inactive: 88%
19,N#Cc1cc2c(ccc3ccccc32)oc1=O,inactive: 106%
20,Cc1ccc2nc(/C(C#N)=C/c3ccc(-c4ccc(C(=O)OC(C)C)cc4)o3)[nH]c2c1,inactive: 65%
21,Cc1ccc2c(c1)c1c(c(=O)n(-c3ccccc3)c(=O)n1CC(=O)c1ccc(Cl)cc1)n2C,inactive: 126%
22,Cn1c(=O)n(C)c2cc(N3CCOCC3)c(NS(=O)(=O)c3ccc(F)cc3)cc21,inactive: 144%
23,O=C1CN(C(=O)c2c(F)cccc2Cl)C(c2ccc(F)cc2)c2cc(Br)ccc2N1 (centres undefined),inactive: 69%
24,CCOc1ccc(NC(=O)CSc2nccn2C2CCCC2)cc1,inactive: 68%
